# Experimental data: PubChem BioAssay AID2101 (National Center for Advancing Translational Sciences (NCATS), 2009)
# Screen size: about 330,000 compounds; about 300 (0.091%) were called active. This list was built around the results that the source calls inconclusive (neither active nor inactive); the mix of calls is not that of the screen. Calls come from the whole dose curve; as a rule, active = well fitted inhibition curve with a large enough effect; inconclusive = small, poorly fitted or top-dose-only effect, or effect the other way, or another doubt; inactive = no such curve, though single readings can be large or run the other way. Potencies of inconclusive entries are left out as doubtful fits.
# Target: Lysosomal acid glucosylceramidase (Homo sapiens) (UniProt P04062)
# Test: qHTS Assay for Inhibitors and Activators of N370S glucocerebrosidase as a Potential Chaperone Treatment of Gaucher Disease;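 for activity change, negative = inhibition: 0% = full enzyme activity and -100% = no enzyme basal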
# Details: N370S GC spleen homogenate, 4MU-glucoside fluorescence; activity change, negative = inhibition: at 59.4 µM (top of the series) unless noted
# Potency is the fitted concentration of half-maximal effect.
SMILES,Potency,"activity change, negative = inhibition"
FC(F)(F)c1cc(CO[C@@H]2CCCN[C@@H]2c2ccccc2)cc(C(F)(F)F)c1,"inconclusive [inhibitor, partial curve]",–
COc1ccc(/C=C/C(=O)c2ccc(O)cc2O)cc1OC,"inconclusive [inhibitor, partial curve]",–
COc1ccc(C(C)(C)C)cc1NC(=O)COC(=O)C(C)C,"inconclusive [activator, partial curve]",–
Cc1cc(=O)n2cccc(O)c2n1,"inconclusive [activator, partial curve]",–
Cc1c(Cc2ccccc2)c(=O)oc2cc(O)ccc12,"inconclusive [activator, partial curve]",–
CC(C)C12CN3CCN(CC(C3)/C1=N\NC(=O)Nc1ccccc1)C2,"inconclusive [inhibitor, full curve, poor fit]",–
Cc1ccc(S(=O)(=O)/N=C(/NC(=S)Nc2ccccc2)c2ccccc2)cc1,–,inactive: 8.91%
CC(Nc1nc(-c2ccncc2)nc2ccccc12)c1ccccc1 (centres undefined),"inconclusive [inhibitor, partial curve]",–
CCN(CC)CCCCCCCCOC(=O)c1cc(OC)c(OC)c(OC)c1,"inconclusive [inhibitor, single point]",–
COc1cccc(S(=O)(=O)Nc2ccc(C(=O)Nc3ccncc3)cc2)c1,"inconclusive [inhibitor, partial curve]",–
O=c1cc(N2CCCCC2)c(-c2ccccc2)nn1Cc1cccc(Cl)c1,"inconclusive [activator, partial curve, poor fit]",–
Cc1ccc(S(=O)(=O)N(CC(=O)N2CCCCC2)c2cccc(C)c2)cc1,"inconclusive [inhibitor, single point]",–
CCCSc1ccc2nc(NC(=O)OC)[nH]c2c1,–,inconclusive: 33.4% [activator]
Cc1cc2c(c(=O)n1CCc1ccccc1)C(C(C)C)C(C#N)=C(N)O2 (centres undefined),–,inactive: -1.64%
Cc1c(NC(=O)COC(=O)c2ccccc2Cl)c(=O)n(-c2ccccc2)n1C,–,inactive: -18.1%
Cc1nn(-c2ccc(Cl)cc2)c2[nH]c(=O)c(CNCc3ccc4c(c3)OCO4)cc12,–,inactive: -18.7%
O=C(O)c1cc2n(n1)C(C(F)(F)F)CC(c1ccccc1)N2 (centres undefined),"inconclusive [inhibitor, full curve, poor fit]",–
COc1ccc(Cn2c(=O)sc3ccccc32)cc1,"inconclusive [activator, partial curve]",–
O=C(CCN1C(=O)S/C(=C\c2ccc(F)cc2)C1=O)Nc1ccc(O)cc1C(=O)O,"inconclusive [activator, full curve]",–
COc1ccc(OC)c(C2=Nn3c(nnc3-c3ccccc3OC)SC2)c1,–,inactive: -6.08%
O=C(/C=C/c1ccncc1)c1cc(Cl)ccc1O,"inconclusive [inhibitor, partial curve, poor fit]",–
CCOc1cc(C2C3=C(CC(C)(C)CC3=O)OC3=C2C(=O)CC(C)(C)C3)cc([N+](=O)[O-])c1O,"inconclusive [activator, partial curve]",–
Cc1ccn2c(/C=N/OCc3ccc(F)cc3)c(-c3ccc(Cl)cc3)nc2c1,–,inactive: -0.614%

SMILES,Potency,"activity change, negative = inhibition"
COc1ccc(C(=O)CSc2nc(-c3ccccn3)nc(C)c2Cl)cc1,"inconclusive [activator, partial curve]",–
O=C(c1ccc2c(=O)n(-c3ccccc3)c(=O)[nH]c2c1)N1CCCCC1,"inconclusive [activator, single point]",–
COc1ccccc1NC(=S)N=Nc1c(O)[nH]c2ccc(Br)cc12,"inconclusive [activator, full curve, poor fit]",–
CCCCN1C[C@H](C)[C@@H](CC(=O)NCc2ccccc2)C1=O,–,inactive: -1.02%
Cc1c(NS(=O)(=O)c2ccc3c(c2)NC(=O)CC(=O)N3)cccc1[N+](=O)[O-],"inconclusive [inhibitor, partial curve]",–
CC/C=C\C/C=C\C/C=C\C/C=C\C/C=C\CCC(=O)O[C@H](COCCCCCCCCCCCCCCCC)COP(=O)([O-])OCC[N+](C)(C)C,–,inactive: -9.96%
CCCCC1OC2(C)OC(=N)C1(C#N)C(C#N)(C#N)C2c1ccccc1 (centres undefined),"inconclusive [activator, single point]",–
CC(CCc1ccccc1)NC(=O)c1ccc(Cl)nc1 (centres undefined),"inconclusive [inhibitor, single point]",–
O=C(CN1CCOCC1)N1CCN(c2ccc([N+](=O)[O-])cc2)CC1,"inconclusive [inhibitor, single point]",–
CNc1oc(/C=C/c2cccc(OC)c2)nc1C#N,"inconclusive [activator, partial curve]",–
COc1ccc2c(c1)O/C(=C\c1sccc1C)C2=O,"inconclusive [activator, single point]",–
Cc1ccccc1CSc1nc2n(n1)C(c1cccs1)C1=C(CCCC1=O)N2 (centres undefined),"inconclusive [activator, partial curve]",–
CCN(C(=O)c1coc(=O)c(Br)c1)c1ccc2c(c1)OCO2,–,inactive: 14.8%
Cn1ccc2cc3c(cc21)CCN3C(=O)Nc1cccnc1,"inconclusive [inhibitor, single point]",–
O=C(NCCc1cccs1)c1cccs1,–,inactive: 11.6%
COCCNc1nc(-c2ccccc2C)nc2ccccc12,"inconclusive [inhibitor, partial curve]",–
CC(C)OCCCNC(=O)c1cc(-c2cccs2)nc2ccccc12,"inconclusive [activator, single point]",–
Clc1ccc(C2Nc3cccc4cccc(c34)N2)cc1,–,inactive: 7.46%
O=C(OCCN=C1NS(=O)(=O)c2ccccc21)C1CC(=O)N(c2ccc(Cl)cc2)C1 (centres undefined),"inconclusive [inhibitor, partial curve]",–
Cc1oc(-c2ccccc2F)nc1CS(=O)(=O)CC(=O)NCCN1CCCC1,"inconclusive [activator, single point]",–
COc1ccc(O)c(/C=c2/sc3nc4cc(C)c(C)cc4n3c2=O)c1,"inconclusive [activator, partial curve, poor fit]",–
COc1ccc(S(=O)(=O)Nc2ccccc2OC)cc1NC(=O)Cc1cccs1,"inconclusive [activator, single point]",–
CCCCSc1nc2sc3c(c2c(=O)n1-c1ccc(OC)cc1)CCN(C)C3,"inconclusive [inhibitor, partial curve]",–

SMILES,Potency,"activity change, negative = inhibition"
CSc1scc2c1-c1nc(SCC(=O)C(C)(C)C)ncc1CC2,"inconclusive [activator, partial curve]",–
COc1ccc(C2CC(=O)Oc3c(C(CCN4CCOCC4)c4cc(OC)c(OC)c(OC)c4)c(OC)cc(OC)c32)cc1 (centres undefined),"inconclusive [inhibitor, single point]",–
CC(C)[C@H](NC(=O)c1ccco1)C(=O)OCC(=O)NC12CC3CC(CC(C3)C1)C2,"inconclusive [activator, partial curve]",–
c1ccc(-c2nnc(NC3=NCCC3)o2)cc1,–,inactive: 5.33%
Cc1cccc2cc(C#N)c(NCCNS(=O)(=O)c3ccc4c(c3)OCCO4)nc12,–,inactive: -2.32%
c1ccc(CC2CCN(c3nc4ccccc4n4cnnc34)CC2)cc1,"inconclusive [activator, single point]",–
CC(C)(O)[C@H]1Cc2cc3ccc(=O)oc3cc2O1,"inconclusive [activator, partial curve]",–
Cc1nc2c(-c3ccc(F)cc3)cnn2c(N)c1-c1ccc(F)cc1,"inconclusive [activator, partial curve]",–
Cc1cccc2c1-c1sc(C(=O)N3CCCCC3)cc1CO2,–,inactive: -19%
COc1ccccc1OCC(=O)Nc1nc2c(s1)CCCC2,"inconclusive [activator, partial curve]",–
O=C(NOCc1ccccc1)c1ccccc1,–,inactive: -2.38%
COc1ccc(-c2c3c(cc(C)[n+]2[O-])oc2ccc(OC)cc23)cc1,–,inactive: 1.99%
COC(=O)N1CCN(/[N+]([O-])=N/Oc2ccc([N+](=O)[O-])cc2[N+](=O)[O-])CC1,–,inactive: -4.92%
COC(=O)c1c(-c2ccccc2)csc1N1C(=O)Nc2ccccc2N1O,–,inactive: 4.2%
O=C(CSc1nc2nc(-c3cccs3)cc(C(F)(F)F)c2c(=O)[nH]1)C(F)(F)F,"inconclusive [activator, partial curve]",–
C=CCn1c(C(C)NC(=O)c2cccs2)n[nH]c1=S (centres undefined),"inconclusive [activator, partial curve]",–
COc1cc2ncnc(NCc3ccccc3C)c2cc1OC,–,inactive: -6.28%
COc1cccc(NC(=O)CSc2nc3ccccc3c(=O)n2CCCC(=O)NCCCN2CCOCC2)c1,"inconclusive [inhibitor, partial curve, poor fit]",–
CCN(CC)S(=O)(=O)c1ccc(N2CCOCC2)c(NC(=O)COc2ccc(Cl)cc2)c1,"inconclusive [activator, full curve]",–
CC(NC(=O)Cn1ccsc1=N)C12CC3CC(CC(C3)C1)C2 (centres undefined),–,inactive: -3.29%
COc1ccc(/C=N/Nc2nn3cnnc3c3ccccc23)cc1,–,inconclusive: 32.2% [activator]
COC(=O)c1cnc(N2CCCN(S(=O)(=O)c3ccccc3)CC2)nc1C(F)(F)F,"inconclusive [activator, partial curve]",–
O=C(Nn1cnnc1)c1ccncc1,"inconclusive [inhibitor, single point]",–
